Experimental data: PMC12136788
This is one part of the list.

B1: chr10:75239141:75239142:-_ENSG00000107758_ENST00000394829|hu_mus|FALSE|FALSE (ssRNA)
RNA: GGGAGUUCUACAGUCCGACGAUCUACUUCUAUCAUGGUUUUCUCCCGCCGAAGUAUGGCAGCACCCUCAUUGAUAAUUCUUAGUGCAAUUUCUUCAUCCACCCGCCCUUCUUUUACCAAGUGGUUCUUCAGAACAUCAACCCUCAACAGAGGAUUGAGCAUCA
B2: chr1:66463027:66463028:+_ENSMUSG00000015222_ENSMUST00000114013|mus_hu|FALSE|FALSE (ssRNA)
RNA: GGGAGUUCUACAGUCCGACGAUCUUUUCUUUCAGGAGUGGAAAUUCUGCCUCUCCCGGUUUUAAAAGGCUUUUCUUUUCUAUGUUUCUCAAGAGAUGAUCUCCGAGCUUCCUUUUCAGCUUUCUCCUCUUUAGGAAUAGUUUCCAACAGAGGAUUGAGCAUCA
B3: chr7:54825262:54825263:-_ENSG00000132432_ENST00000352861|hu_hu|hu_hu_hu_mus_False|28_58 (ssRNA)
RNA: GGGAGUUCUACAGUCCGACGAUCCUGCCGGCUGGGCUCCACAAACUGCAUUACCUGAUCCAUGUUUGUUGGAUGGCACACCUAAAACGUAGAGACACGUAGCUCAGGGAGCUUGCUAGCCCAACGGAACCGGAAGCUGGCAACCAACAGAGGAUUGAGCAUCA
B4: 35048147_35056347_353_5pUTR_ENSMUSG00000026878_ENSMUST00000028238|mouse|control|control (ssRNA)
RNA: GGGAGUUCUACAGUCCGACGAUCAAUAUACUUAAAGAUGUAAGAGUAGUUGUACGGUGCAGUUGCCAUGGUGGCACUGGGGGGUUGCUGGUGGCUGGGCAGCUUUCCGGACGGGAGGGGGACGUCAGGACGAGGAAGCGGAGGCAACAGAGGAUUGAGCAUCA
B5: chr16:94915998:94915999:+_ENSMUSG00000022897_ENSMUST00000023614|mus_hu|motif|central (ssRNA)
RNA: GGGAGUUCUACAGUCCGACGAUCUUUUGAUAUUGCUAUACUCAAGAUGAUAUCCUUUUAUUCACUGUAAACCUUUAUGAACGGCCAAGUUCAAAAAAAUCAUCCACAGGCUUGACAGUUAAUUACAAAAUAAAUAUGGAUUUCCAACAGAGGAUUGAGCAUCA
B6: chr13:37614821:37614822:-_ENSG00000102710_ENST00000475892|hu_mus|motif|central (ssRNA)
RNA: GGGAGUUCUACAGUCCGACGAUCACUUUGGUAACCAGGAGACUUCAUAUUACUGGACUGCCUAUAGUCACGUAUUUCUGCGGUCACACAUCCACAAUGAAAAAUAUUAACCUGUGAUUUUUCAAGGAGAUCCACCAAAAUAGGCAACAGAGGAUUGAGCAUCA
B7: chr19:14671312:14671313:-_ENSMUSG00000024642_ENSMUST00000052011|perfect_dup|FALSE|FALSE (ssRNA)
RNA: GGGAGUUCUACAGUCCGACGAUCAGCCUGUAAAAACUGAAACUCUUCCUUAAUCCGAUCACAGGAUUCGGAAAUUGUAAAUUUAAAGGGUUGAGCAGGCUGAUGCGGUGCUGGGUGUCUGGUCUGCGGGUACAUCUUGCUCAGCAACAGAGGAUUGAGCAUCA
B8: 131127965_131128085_1752_3pUTR_ENSMUSG00000048911_ENSMUST00000059372|mouse|control|control (ssRNA)
RNA: GGGAGUUCUACAGUCCGACGAUCUGCUUUACACGGCGAAUUUACACUGUUCACAAAGCCUAUUGGAGGCAGUUAUCUCUAGAAAAGUUGGACAGAAAGAGCCAAAGAGCAGCAUGCAUUUUCCCUAUAAAAACCCCUUCAGUUCAACAGAGGAUUGAGCAUCA
B9: chr6:41757443:41757444:+_ENSG00000214736_ENST00000398881|hu_mus|hu_hu_hu_mus_False|8_18 (ssRNA)
RNA: GGGAGUUCUACAGUCCGACGAUCGAACCGUGCAGAGGCAACAUCUCAGCCGACACUGGGGGAUGGGGGGGCAGUGGGGGGGGGUUCAGGCAAGGAGAGGGAGUCAACUUCAGCUGCUCAAACUUCAGCUGCCAUCAGUCACAGCAACAGAGGAUUGAGCAUCA
B10: 2906631_2906918_121_3pUTR_ENSG00000129757_ENST00000380725|human|control|control (ssRNA)
RNA: GGGAGUUCUACAGUCCGACGAUCAGGCGCUGGUGCGCACUAGUACUGGGAAGGUCCCACGGGCGACAAGACGCUCCAUCGUGGAUGUGCUGGCUGUCCGGUGGUGGACUCUUCUGCGUCGGGUUCGCCUGUCUCGUCCGGACGCAACAGAGGAUUGAGCAUCA
B11: chr12:39763582:39763583:-_ENSG00000139116_ENST00000544797|hu_mus|hu_hu_hu_mus_False|8_68 (ssRNA)
RNA: GGGAGUUCUACAGUCCGACGAUCCUCUAGGAACUGGGCAUUCACUUUGAAUUCAGGAGGGGGCAGCCCAUUUUUAAUCGCUGAGGUCUUUUUCUCAUCAAUACUCUUGAACAGGUGUCUAACAGCACGAGAAAUAAUGCCCUGCAACAGAGGAUUGAGCAUCA
B12: chr2:144966258:144966259:-_ENSG00000121964_ENST00000344850|hu_mus|motif|central (ssRNA)
RNA: GGGAGUUCUACAGUCCGACGAUCUGUGCGUGCUCUCCAGUGCCAUUUCUUUGCAGGAAGAGUGUACAACACGCAGUCAUCGGAUUCUUCUCGGAGCAGCUCUACCAGCUGUCGAUGGGAGCCUCCAUAAAAUGCCUCGAUGAUCAACAGAGGAUUGAGCAUCA
B13: chr1:235505951:235505952:+_ENSG00000152904_ENST00000391855|hu_hu|motif|central (ssRNA)
RNA: GGGAGUUCUACAGUCCGACGAUCUUUAUAGGCUUUAGCUUCAAGCUCUUUAAGGGUAUUACGAGUGUAUUCAAAAGAACCGGCAUCCUCAAGAUAAUGUACACAGUAUUUUUUUAUAUCUAUGUUUUCUGUUCUCUGGCGCAACAACAGAGGAUUGAGCAUCA
B14: chr4:136892031:136892032:-_ENSMUSG00000006699_ENSMUST00000030417|mus_mus|FALSE|FALSE (ssRNA)
RNA: GGGAGUUCUACAGUCCGACGAUCCACACUUAAUUGUCUGCAUUUCGGAAACAGUUUUGUAUCCACUUUUAAUAUUUCAAAUUAGAUCUUGUCCUCAGCUUCUCCGCCGGGGCGUUGGCAGCACUGCGCGGGGCCUCCUCGGCUCAACAGAGGAUUGAGCAUCA
B15: chr9:95013113:95013114:-_ENSG00000196305_ENST00000443024|hu_hu|hu_hu_hu_mus_False|1_8 (ssRNA)
RNA: GGGAGUUCUACAGUCCGACGAUCCUCAGUCAGAAAGGGCGUGUAAGGGGCCAUCAGUCUGCACAGAGAAAGCAGGACACUGAACAGUGUCUCCAGAGCCAUGACACAGUCUUCCACCCCACUCUCACCCUUUAAUCUUCUGCGCAACAGAGGAUUGAGCAUCA
B16: chr12:86311719:86311720:-_ENSMUSG00000042350_ENSMUST00000043169|mus_mus|motif|central (ssRNA)
RNA: GGGAGUUCUACAGUCCGACGAUCGGCUGCGGCGUGAAGAAAAACGUUACCCGAACGGGGGCUGCAACGUGGCCAAGUCCGGGUUCUGGGGUCCGAGGAAGCAGCGGCCUCAUCCAGCACAAAUCCUACCCUCCACCCGCCCCCCAACAGAGGAUUGAGCAUCA
B17: chr7:56126341:56126342:+_ENSG00000146731_ENST00000540286|hu_mus|hu_hu_hu_mus_True|18_88 (ssRNA)
RNA: GGGAGUUCUACAGUCCGACGAUCCAUGUUUCUCCUCUUGGCUCUGCGCAGAGCAACGAUCCCUUCUUUCGCAAGGGCAUCUAAGGAAAAGGGGUCAAUCCCCUUUUGAUUAAUAACAACAAAUCCUUUAUCUGAGUCACCACACAACAGAGGAUUGAGCAUCA
B18: chr10:7364202:7364203:-_ENSMUSG00000019795_ENSMUST00000163085|mus_hu|FALSE|FALSE (ssRNA)
RNA: GGGAGUUCUACAGUCCGACGAUCUCCAGAUCCUACAUCAAGAGCUUUAGCUCCUUCAUGCAACUGAUCAAAUAGAAGUUCUAGCGCAUAUGCAUGCAUGUGUGGAGCACUGAUUGUUGCUUGGAAACCUAUUGAUUGUGGAGACAACAGAGGAUUGAGCAUCA
B19: chr2:148701126:148701127:-_ENSMUSG00000027447_ENSMUST00000028938|mus_mus|FALSE|FALSE (ssRNA)
RNA: GGGAGUUCUACAGUCCGACGAUCCUAGGACAAAGGGAUAAAGCUCCAACAAGACUCUGAGUUGGUGCAGAACAGACGCUGCUACUCCGUGCGACUUUUACCCAAAUGCGAGCGUUAGGGACCCGCCCGCCUCUCCUGGCUCCUCAACAGAGGAUUGAGCAUCA
B20: chr22:38894135:38894136:-_ENSG00000100201_ENST00000396821|hu_hu|FALSE|FALSE (ssRNA)
RNA: GGGAGUUCUACAGUCCGACGAUCAUAGUCAUCGGCCACCUGCUGUACUUGCUGGGCAAGCUCUCUGGUAGGAGCCAGAACUAGACAGAUUGGGCCAUCUCCCCUUUCCAAGUAUGGCUGGUGGUUAAUAUGAACAAUUGCAGGCAACAGAGGAUUGAGCAUCA
B21: chr2:47387792:47387793:-_ENSG00000143933_ENST00000272298|hu_hu|hu_hu_hu_mus_True|1_38 (ssRNA)
RNA: GGGAGUUCUACAGUCCGACGAUCUAAGGACAAUGACAGUAAGAUAAGGGAAGAAAACAUGGAGGAAUGAAGUCCUAAUUACUAUACAUGCAUAUUUUUUUGACAGUGGGGGGGGGAACCUUUUACAGAUAAGUUACACAAAGACAACAGAGGAUUGAGCAUCA
B22: chr8:117866615:117866616:-_ENSG00000164754_ENST00000297338|hu_hu|motif|central (ssRNA)
RNA: GGGAGUUCUACAGUCCGACGAUCCAAUUUCUUGGUGGGCGGUGCCAGAUCCAAAGUAGUAACAAUAUCUGAAUAAUCACGGAGUUGGGCUCUAAUUGUCUUGCUAUCCAACUCUUUGACACUGUCAACAAUUAGCUUCCUCUUCAACAGAGGAUUGAGCAUCA

The binders below were run against T1, UNK ZnF1-3 (human, UniProt Q9C0B0 31-174) (assay: nsRBNS (natural sequence RNA bind-n-seq); RBNS binding buffer (assumed for nsRBNS): 25 mM Tris pH 7.5, 150 mM KCl, 3 mM MgCl2, 0.01% Triton X-100, 500 ug/ml BSA, 20 U/ml SUPERase-In, 4 C; UNK is unkempt and MSI1 is Musashi-1; names of the RNAs are library labels; protein concentration not given here; high values mean tight binding).
T1 sequence: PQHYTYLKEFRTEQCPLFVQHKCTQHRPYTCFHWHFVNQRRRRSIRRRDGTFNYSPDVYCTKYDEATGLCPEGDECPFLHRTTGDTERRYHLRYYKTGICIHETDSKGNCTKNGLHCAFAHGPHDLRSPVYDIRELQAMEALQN

Binder | binding signal [enrichment R]
B1 | 0.831
B2 | 0.4
B3 | 0.935
B4 | 1.83
B5 | 0.828
B6 | 1.22
B7 | 1.96
B8 | 1.67
B9 | 2.86
B10 | 0.5
B11 | 1.79
B12 | 0.686
B13 | 0.765
B14 | 0.567
B15 | 0.985
B16 | 1.44
B17 | 1.19
B18 | 1.05
B19 | 0.997
B20 | 0.527
B21 | 2.05
B22 | 0.978
